# Data reported in the supplement of paper PMC8728848.
# This is one part of the list.
# Experiments:
# Test in all cases: glycan array binding signal (z-score within array); higher = stronger binding
# Conditions in all cases: glycan notation: IUPAC condensed, linker removed
# [1] = target: GlcNAc(b1-2)Gal(b1-3)GalNAc
# In short: (§1)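 Glycan array data were curated from 3228 arrays in the Consortium for Functional Glycomics database and kept only where the protein sequence was available. Glycan names were converted to IUPAC-condensed notation, and columns mapping to the same glycan were averaged. The binding signal is a within-array Z-score, averaged across arrays of the same protein sequence at different concentrations or buffers and across linkers. Negative Z-scores can be read as non-binding.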
# [2] = target: GlcNAc(b1-2)Man(a1-3)[GlcNAc(b1-2)Man(a1-6)]Man(b1-4)GlcNAc(b1-4)GlcNAc
# In short: as §1
# [3] = target: GlcNAc(b1-2)Man(a1-3)[GlcNAc(b1-2)Man(a1-6)]Man(b1-4)GlcNAc(b1-4)[Fuc(a1-6)]GlcNAc
# In short: as §1
# [4] = target: GlcNAc(b1-2)Man(a1-3)[GlcNAc(b1-4)][GlcNAc(b1-2)Man(a1-6)]Man(b1-4)GlcNAc(b1-4)GlcNAc
# In short: as §1
# [5] = target: GlcNAc(b1-2)Man(a1-3)[GlcNAc(b1-4)][GlcNAc(b1-2)Man(a1-6)]Man(b1-4)GlcNAc(b1-4)[Fuc(a1-6)]GlcNAc
# In short: as §1
# [6] = target: GlcNAc(b1-2)[GlcNAc(b1-4)]Man(a1-3)[GlcNAc(b1-2)Man(a1-6)]Man(b1-4)GlcNAc(b1-4)GlcNAc
# In short: as §1
# [7] = target: GlcNAc(b1-2)[GlcNAc(b1-4)]Man(a1-3)[GlcNAc(b1-4)][GlcNAc(b1-2)Man(a1-6)]Man(b1-4)GlcNAc(b1-4)GlcNAc
# In short: as §1
# [8] = target: GlcNAc(b1-2)[GlcNAc(b1-4)]Man(a1-3)[GlcNAc(b1-4)][GlcNAc(b1-2)[GlcNAc(b1-6)]Man(a1-6)]Man(b1-4)GlcNAc(b1-4)GlcNAc
# In short: as §1
# [9] = target: GlcNAc(b1-2)[GlcNAc(b1-4)]Man(a1-3)[GlcNAc(b1-4)][GlcNAc(b1-2)[GlcNAc(b1-6)]Man(a1-6)]Man(b1-4)GlcNAc(b1-4)[Fuc(a1-6)]GlcNAc
# In short: as §1
# [10] = target: GlcNAc(b1-2)[GlcNAc(b1-6)]Man(a1-6)[GlcNAc(b1-2)Man(a1-3)]Man(b1-4)GlcNAc(b1-4)GlcNAc
# In short: as §1
# [11] = target: GlcNAc(b1-2)[GlcNAc(b1-6)]Man(a1-6)[GlcNAc(b1-2)Man(a1-3)]Man(b1-4)GlcNAc(b1-4)[Fuc(a1-6)]GlcNAc
# In short: as §1
# [12] = target: GlcNAc(b1-2)[GlcNAc(b1-6)]Man(a1-6)[GlcNAc(b1-4)][GlcNAc(b1-2)Man(a1-3)]Man(b1-4)GlcNAc(b1-4)GlcNAc
# In short: as §1
# [13] = target: GlcNAc(b1-3)Fuc
# In short: as §1
# [14] = target: GlcNAc(b1-3)Gal
# In short: as §1
# [15] = target: GlcNAc(b1-3)Gal(b1-3)GalNAc
# In short: as §1
# [16] = target: GlcNAc(b1-3)Gal(b1-4)Glc
# In short: as §1
# [17] = target: GlcNAc(b1-3)Gal(b1-4)GlcNAc
# In short: as §1
# [18] = target: GlcNAc(b1-3)Gal(b1-4)GlcNAc(b1-2)Man(a1-3)[GlcNAc(b1-3)Gal(b1-4)GlcNAc(b1-2)Man(a1-6)]Man(b1-4)GlcNAc(b1-4)GlcNAc
# In short: as §1
# [19] = target: GlcNAc(b1-3)Gal(b1-4)GlcNAc(b1-2)Man(a1-3)[GlcNAc(b1-3)Gal(b1-4)GlcNAc(b1-2)Man(a1-6)]Man(b1-4)GlcNAc(b1-4)[Fuc(a1-6)]GlcNAc
# In short: as §1
# [20] = target: GlcNAc(b1-3)Gal(b1-4)GlcNAc(b1-2)[GlcNAc(b1-3)Gal(b1-4)GlcNAc(b1-6)]Man(a1-6)[GlcNAc(b1-3)Gal(b1-4)GlcNAc(b1-2)Man(a1-3)]Man(b1-4)GlcNAc(b1-4)GlcNAc
# In short: as §1
# [21] = target: GlcNAc(b1-3)Gal(b1-4)GlcNAc(b1-3)Gal(b1-4)GlcNAc
# In short: as §1
# [22] = target: GlcNAc(b1-3)Gal(b1-4)GlcNAc(b1-3)Gal(b1-4)GlcNAc(b1-2)Man(a1-3)[GlcNAc(b1-3)Gal(b1-4)GlcNAc(b1-3)Gal(b1-4)GlcNAc(b1-2)Man(a1-6)]Man(b1-4)GlcNAc(b1-4)GlcNAc
# In short: as §1
# [23] = target: GlcNAc(b1-3)Gal(b1-4)GlcNAc(b1-3)Gal(b1-4)GlcNAc(b1-2)Man(a1-3)[GlcNAc(b1-3)Gal(b1-4)GlcNAc(b1-3)Gal(b1-4)GlcNAc(b1-2)Man(a1-6)]Man(b1-4)GlcNAc(b1-4)[Fuc(a1-6)]GlcNAc
# In short: as §1
# [24] = target: GlcNAc(b1-3)Gal(b1-4)GlcNAc(b1-3)Gal(b1-4)GlcNAc(b1-2)[GlcNAc(b1-3)Gal(b1-4)GlcNAc(b1-3)Gal(b1-4)GlcNAc(b1-6)]Man(a1-6)[GlcNAc(b1-3)Gal(b1-4)GlcNAc(b1-3)Gal(b1-4)GlcNAc(b1-2)Man(a1-3)]Man(b1-4)GlcNAc(b1-4)[Fuc(a1-6)]GlcNAc
# In short: as §1
# [25] = target: GlcNAc(b1-3)Gal(b1-4)GlcNAc(b1-3)Gal(b1-4)GlcNAc(b1-3)Gal(b1-4)GlcNAc(b1-2)Man(a1-3)[GlcNAc(b1-3)Gal(b1-4)GlcNAc(b1-3)Gal(b1-4)GlcNAc(b1-3)Gal(b1-4)GlcNAc(b1-2)Man(a1-6)]Man(b1-4)GlcNAc(b1-4)GlcNAc
# In short: as §1
# [26] = target: GlcNAc(b1-3)Gal(b1-4)GlcNAc(b1-3)Gal(b1-4)GlcNAc(b1-3)Gal(b1-4)GlcNAc(b1-2)Man(a1-3)[GlcNAc(b1-3)Gal(b1-4)GlcNAc(b1-3)Gal(b1-4)GlcNAc(b1-3)Gal(b1-4)GlcNAc(b1-2)Man(a1-6)]Man(b1-4)GlcNAc(b1-4)[Fuc(a1-6)]GlcNAc
# In short: as §1
# [27] = target: GlcNAc(b1-3)Gal(b1-4)GlcNAc(b1-3)Gal(b1-4)GlcNAc(b1-3)Gal(b1-4)GlcNAc(b1-2)[GlcNAc(b1-3)Gal(b1-4)GlcNAc(b1-3)Gal(b1-4)GlcNAc(b1-3)Gal(b1-4)GlcNAc(b1-6)]Man(a1-6)[GlcNAc(b1-3)Gal(b1-4)GlcNAc(b1-3)Gal(b1-4)GlcNAc(b1-3)Gal(b1-4)GlcNAc(b1-2)Man(a1-3)]Man(b1-4)GlcNAc(b1-4)[Fuc(a1-6)]GlcNAc
# In short: as §1
# [28] = target: GlcNAc(b1-3)Gal(b1-4)GlcNAc(b1-3)Gal(b1-4)GlcNAc(b1-3)Gal(b1-4)GlcNAc(b1-3)Gal(b1-4)GlcNAc(b1-2)Man(a1-3)[GlcNAc(b1-3)Gal(b1-4)GlcNAc(b1-3)Gal(b1-4)GlcNAc(b1-3)Gal(b1-4)GlcNAc(b1-3)Gal(b1-4)GlcNAc(b1-2)Man(a1-6)]Man(b1-4)GlcNAc(b1-4)GlcNAc
# In short: as §1
# [29] = target: GlcNAc(b1-3)Gal(b1-4)GlcNAc(b1-3)Gal(b1-4)GlcNAc(b1-3)Gal(b1-4)GlcNAc(b1-3)Gal(b1-4)GlcNAc(b1-2)Man(a1-3)[GlcNAc(b1-3)Gal(b1-4)GlcNAc(b1-3)Gal(b1-4)GlcNAc(b1-3)Gal(b1-4)GlcNAc(b1-3)Gal(b1-4)GlcNAc(b1-2)Man(a1-6)]Man(b1-4)GlcNAc(b1-4)[Fuc(a1-6)]GlcNAc
# In short: as §1
# [30] = target: GlcNAc(b1-3)Gal(b1-4)GlcNAc(b1-3)Gal(b1-4)GlcNAc(b1-3)Gal(b1-4)GlcNAc(b1-3)Gal(b1-4)GlcNAc(b1-2)[GlcNAc(b1-3)Gal(b1-4)GlcNAc(b1-3)Gal(b1-4)GlcNAc(b1-3)Gal(b1-4)GlcNAc(b1-3)Gal(b1-4)GlcNAc(b1-6)]Man(a1-6)[GlcNAc(b1-3)Gal(b1-4)GlcNAc(b1-3)Gal(b1-4)GlcNAc(b1-3)Gal(b1-4)GlcNAc(b1-3)Gal(b1-4)GlcNAc(b1-2)Man(a1-3)]Man(b1-4)GlcNAc(b1-4)[Fuc(a1-6)]GlcNAc
# In short: as §1
# [31] = target: GlcNAc(b1-3)Gal(b1-4)GlcNAc(b1-3)Gal(b1-4)GlcNAc(b1-3)GalNAc
# In short: as §1
# [32] = target: GlcNAc(b1-3)Gal(b1-4)GlcNAc(b1-3)GalNAc
# In short: as §1
# [33] = target: GlcNAc(b1-3)Gal(b1-4)GlcNAc(b1-3)[GlcNAc(b1-3)Gal(b1-4)GlcNAc(b1-3)]GalNAc
# In short: as §1
# [34] = target: GlcNAc(b1-3)Gal(b1-4)GlcNAc(b1-6)[Gal(b1-3)]GalNAc
# In short: as §1
# [35] = target: GlcNAc(b1-3)Gal(b1-4)GlcNAc(b1-6)[GlcNAc(b1-3)Gal(b1-3)]GalNAc
# In short: as §1
# [36] = target: GlcNAc(b1-3)Gal(b1-4)GlcNAc(b1-6)[GlcNAc(b1-3)]Gal(b1-4)GlcNAc
# In short: as §1
# [37] = target: GlcNAc(b1-3)GalNAc
# In short: as §1
binder,measurement,setting,value
Epa3to1 (Candida glabrata) (protein) MGSSHHHHHHSSGLVPRGSHMKRELSSQNPFGYPIGCSPQDVAIIPGLTMELYSYPIVSGTPPNCYDASYVDPEYPRTGYLKRKMVGKSTGVTGNLNYKYSVEKACMVKYGNLPAGYNYNEPLTVSNFTMILYGYFKAQTTGLHTFFVNADDLLYINFGAGNAFDCCKREDSKTKLGEYVAYDIWHVDSSKNKVSLFLEKDLYYPIRMFFNNREYDSSLDLSFSVNGATDQISDFSGYLYSVPDQPDTCPAHIGYDTTCR,glycan array binding signal (z-score),[1],-0.767
same,glycan array binding signal (z-score),[2],-0.236
same,glycan array binding signal (z-score),[3],-0.421
same,glycan array binding signal (z-score),[4],0.588
same,glycan array binding signal (z-score),[5],-0.266
same,glycan array binding signal (z-score),[6],-0.332
same,glycan array binding signal (z-score),[7],-0.209
same,glycan array binding signal (z-score),[8],-0.24
same,glycan array binding signal (z-score),[9],-0.017
same,glycan array binding signal (z-score),[10],-0.435
same,glycan array binding signal (z-score),[11],-0.617
same,glycan array binding signal (z-score),[12],-0.418
same,glycan array binding signal (z-score),[13],-0.291
same,glycan array binding signal (z-score),[14],-0.609
same,glycan array binding signal (z-score),[15],0.077
same,glycan array binding signal (z-score),[16],-0.261
same,glycan array binding signal (z-score),[17],-0.693
same,glycan array binding signal (z-score),[18],-0.383
same,glycan array binding signal (z-score),[19],-0.159
same,glycan array binding signal (z-score),[20],-0.36
same,glycan array binding signal (z-score),[21],-0.343
same,glycan array binding signal (z-score),[22],-0.623
same,glycan array binding signal (z-score),[23],-0.263
same,glycan array binding signal (z-score),[24],-0.011
same,glycan array binding signal (z-score),[25],-0.368
same,glycan array binding signal (z-score),[26],0.013
same,glycan array binding signal (z-score),[27],-0.012
same,glycan array binding signal (z-score),[28],-0.533
same,glycan array binding signal (z-score),[29],-0.036
same,glycan array binding signal (z-score),[30],0.314
same,glycan array binding signal (z-score),[31],-0.4
same,glycan array binding signal (z-score),[32],0.229
same,glycan array binding signal (z-score),[33],-0.249
same,glycan array binding signal (z-score),[34],0.148
same,glycan array binding signal (z-score),[35],-0.526
same,glycan array binding signal (z-score),[36],-0.631
same,glycan array binding signal (z-score),[37],-0.726
